According to the supplement of paper PMC12645437, “Orthogonal IMiD-Degron Pairs Induce Selective Protein Degradation in Cells” (ACS Chemical Biology, 2025):
The other results are listed elsewhere or left out.

What follows are sequences tested against no compound (DMSO) (assay: log2 fold change of degron read counts, EGFP-low vs EGFP+ sorted cells; higher = lower degron-EGFP level without compound (poor expression or instability)). Settings: compound: DMSO control; 18 h.
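Note: jurkat cells carrying a lentiviral library of mutant zinc finger degrons fused to EGFP plus mCherry, mCherry+ cells FACS sorted, degron abundance counted by next-generation sequencing.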

Sequence | log2 fold change of degron read counts
LNCEICGFICTQKGNLLRHIKL | 0.966
FHCPQCGAFFTQKGNLLRHIKL | 0.26
FTCDQCGARFTQKGNLLRHIKL | -1.19
FYCNICGAIFTQKGNLLRHIKL | 0.756
FCCEVCGASFTQKGNLLRHIKL | -2.84
FWCEICGAPFTQKGNLLRHIKL | 0.0185
FRCPICGHGFTQKGNLLRHIKL | 0.494
FDCEICGHPFTQKGNLLRHIKL | -0.401
FVCPVCGADFTQKGNLLRHIKL | -0.48
FHCNICGAEFTQKGNLLRHIKL | -1.48
LICPICGFLCTQKGNLLRHIKL | 1.86
FSCNQCGAVFTQKGNLLRHIKL | -0.902
FNCPVCGATFTQKGNLLRHIKL | -0.691
FGCPVCGAKFTQKGNLLRHIKL | -0.48
FICPICGRTFTQKGNLLRHIKL | 0.077
FTCPQCGAMFTQKGNLLRHIKL | -0.407

Sequence | log2 fold change of degron read counts
FECEVCGARFTQKGNLLRHIKL | -0.858
LHCPICGFHCTQKGNLLRHIKL | 1.44
FICNVCGAFFTQKGNLLRHIKL | -0.34
FCCDVCGAPFTQKGNLLRHIKL | -0.916
FKCEVCGADFTQKGNLLRHIKL | -1.98
FHCEVCGAKFTQKGNLLRHIKL | -1.67
FRCNQCGAFFTQKGNLLRHIKL | 0.343
LECNQCGFNCTQKGNLLRHIKL | 0.286
LLCEICGFVCTQKGNLLRHIKL | 0.366
FKCPICGREFTQKGNLLRHIKL | -0.554
FTCDVCGASFTQKGNLLRHIKL | -1.73
FTCEICGAPFTQKGNLLRHIKL | -0.923
FACPICGRHFTQKGNLLRHIKL | -0.855
FDCSVCGHWFTQKGNLLRHIKL | 1.59
FECNQCGRFFTQKGNLLRHIKL | -0.652
FFCEICGRYFTQKGNLLRHIKL | 0.222
